{"source": "PubChem BioAssay AID2546", "about": "(National Center for Advancing Translational Sciences (NCATS), 2010)", "note": "Screen size: about 310,000 compounds; about 11,000 (3.5%) were called active. This list was built around the results that the source calls inconclusive (neither active nor inactive); the mix of calls is not that of the screen. The call rests on the fitted dose curve; in most records, active means well fitted inhibition curve with a large enough effect; inconclusive means small, poorly fitted or top-dose-only effect, or effect the other way; inactive means flat fitted curve, though single readings scatter. Potencies of inconclusive entries are left out as doubtful fits. On the % scale 0 is the no-effect control and ±100 the full control effect; potency means the concentration at half of the fitted maximal effect; tags describe the fitted curve by direction and shape."}
{"assay": "VP16 counterscreen qHTS for inhibitors of ROR gamma transcriptional activity;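 further: Gal4-VP16 expression switched on by copper sulfate through the metallothionein promoter; nearly all actives have a fitted effect of over 50% in size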", "details": "Drosophila S2 Gal4-VP16 UAS-luciferase, luminescence, 20 h; activity, negative = inhibition: at 53.6 µM (top of the series)"}
{"compound": "Cc1c(Cl)cccc1NCC(=O)Nc1ccc(Cl)cc1F", "Potency": "inconclusive [inhibitor, single point]"}
{"compound": "CCOc1ccc(C(=O)Nc2nc3ccccc3[nH]2)cc1OCC", "Potency": "active: 15.8 µM"}
{"compound": "COC(=O)COc1ccc2c(c1C)O/C(=C\\c1ccco1)C2=O", "Potency": "inconclusive [inhibitor, single point]"}
{"compound": "CCOc1ccc(OCc2ccc(C(=O)NCc3ccncc3)o2)cc1", "activity, negative = inhibition": "inactive: 17.4%"}
{"compound": "C#C[C@]1(OC(C)=O)CC[C@H]2[C@@H]3CCC4=C[C@@H](OC(C)=O)CC[C@@H]4[C@H]3CC[C@@]21C", "Potency": "inconclusive [inhibitor, partial curve]"}
{"compound": "Cc1cc(C)c(C)c(C(=O)COC(=O)CNC(=O)CNC(=O)c2ccco2)c1C", "activity, negative = inhibition": "inactive: -4.03%"}
{"compound": "Clc1ccc(-c2ccc(/C=N/Nc3nncc(-c4ccccc4)n3)o2)cc1", "Potency": "active: 0.794 µM"}
{"compound": "CCN(CC)C(=O)C1CCN(S(=O)(=O)c2ccc3oc4ccccc4c3c2)CC1", "Potency": "inconclusive [inhibitor, single point]"}
{"compound": "CC(=O)N1N=C(c2ccc(C)o2)CC1c1ccc(Br)cc1", "note": "(stereo unspecified)", "Potency": "inconclusive [inhibitor, single point]"}
{"compound": "CN1CCc2nc3sc(C(=O)C45CC6CC(CC(C6)C4)C5)c(N)c3cc2C1", "activity, negative = inhibition": "inactive: -9.25%"}
{"compound": "O=C1/C(=C/c2ccc(F)cc2)SC(=S)N1CCCC(=O)N1CCCCC1CCO", "note": "(stereo unspecified)", "Potency": "inconclusive [inhibitor, partial curve]"}
{"compound": "COC(=O)c1cccc(NC(=O)/C=C/c2cccc([N+](=O)[O-])c2)c1", "Potency": "inconclusive [inhibitor, single point]"}
{"compound": "CC(NC(=S)Nc1ccc(Cl)cc1Cl)C(c1cccs1)N1CCCC1", "note": "(stereo unspecified)", "Potency": "inconclusive [inhibitor, single point]"}
{"compound": "CC(=O)N1c2ccc(S(=O)(=O)N3CCCC(C(=O)Nc4ccc(F)cc4)C3)cc2CC1C", "note": "(stereo unspecified)", "Potency": "inconclusive [inhibitor, single point]"}
{"compound": "Cc1ccc(C2=NC3(CCCC3)N=C2SCC(=O)Nc2ccc3c(c2)OCCO3)cc1", "activity, negative = inhibition": "inactive: -4.08%"}
{"compound": "CCN1CCN(C(=O)/C=C/c2ccc(C)o2)CC1", "Potency": "inconclusive [inhibitor, single point]"}
{"compound": "C/C(CC(=O)C(F)(F)F)=N\\NC(=O)/C(C#N)=C/N(C)C", "Potency": "inconclusive [inhibitor, single point]"}
{"compound": "Cc1cccc(C(=O)NC(=S)NNC(=O)c2ccccc2Cl)c1", "Potency": "inconclusive [inhibitor, single point]"}
{"compound": "CC(C)(C)NC(=O)Cn1nnc(-c2ccccc2Cl)n1", "Potency": "inconclusive [inhibitor, full curve]"}
{"compound": "Cc1nc2cnc(N3CCOCC3)nc2n(C2CC2)c1=O", "Potency": "inconclusive [activator, single point]"}
{"compound": "O=C(NCCc1ccccc1F)c1ccc2c(c1)OCCO2", "Potency": "active: 0.794 µM"}
{"compound": "CCOC(=O)C1(CCOc2ccccc2)CCN(Cc2nccn2CC)CC1", "Potency": "inconclusive [inhibitor, single point]"}
{"compound": "O=C(Nc1nnc(C2CC2)s1)c1cccc(S(=O)(=O)N2CCc3ccccc32)c1", "activity, negative = inhibition": "inactive: -1.42%"}
{"compound": "CSCC[C@H](NC(=O)OC(C)(C)C)c1nnc(SCc2ccccc2)o1", "Potency": "inconclusive [inhibitor, single point]"}
{"compound": "Brc1cc2c(cc1CN1CCc3ccccc3C1)OCO2", "activity, negative = inhibition": "inactive: -1.9%"}
{"compound": "CC1(C)Cc2c(sc3nc(C4CCCCC4)n(N)c(=O)c23)CO1", "Potency": "inconclusive [inhibitor, single point]"}
{"compound": "Oc1ccc(N=Nc2ccc3ccccc3c2)cc1", "Potency": "inconclusive [inhibitor, partial curve]"}
{"compound": "O=C(c1ccc(-c2cc(Cl)ccc2Cl)o1)N1CCOCC1", "activity, negative = inhibition": "inactive: -3.33%"}
{"compound": "Cc1cccc(C)c1N1CCN(CCn2c(=S)[nH]c3ccccc3c2=O)CC1", "Potency": "inconclusive [inhibitor, single point]"}
{"compound": "O=C1c2cccc3cccc(c23)C(=O)N1OS(=O)(=O)c1ccc(Cl)cc1", "activity, negative = inhibition": "inactive: -5.32%"}
{"compound": "Cc1ccc(-c2noc(CCC(=O)Nc3cc(C)ccn3)n2)cc1", "Potency": "inconclusive [inhibitor, full curve, poor fit]"}
{"compound": "CCOc1cc(NC(=S)NCC2CCCO2)c(OCC)cc1NC(=O)c1ccccc1C", "note": "(stereo unspecified)", "Potency": "inconclusive [inhibitor, single point]"}
{"compound": "Cc1cc(C)c(-n2c(SCc3nc4ccccc4s3)n[nH]c2=O)c(C)c1", "Potency": "active: 3.16 µM"}
{"compound": "COc1cccc(/C=N/NC(=O)c2cc3c(OC)cccc3[nH]2)c1OC", "activity, negative = inhibition": "inactive: -11.4%"}
{"compound": "O=C(C1=C(O)C(=O)N(c2ncccn2)C1c1ccc(Cl)cc1)c1ccco1", "note": "(stereo unspecified)", "Potency": "inconclusive [inhibitor, single point]"}
{"compound": "Cc1ccc(NC(=S)NC(=O)c2ccc(F)cc2)cc1S(=O)(=O)Nc1ccccc1Cl", "Potency": "active: 6.31 µM"}
{"compound": "CCc1ccc(S(=O)(=O)/N=C2\\C=C(Nc3cccc(C(=O)O)c3)C(=O)c3ccccc32)cc1", "Potency": "inconclusive [inhibitor, single point]"}
{"compound": "O=C1C=CC(=O)N1Cc1ccccc1", "Potency": "inconclusive [inhibitor, single point]"}
{"compound": "CCOc1ccc(-c2c(=O)n(OCc3ccccn3)c3ccccc3[n+]2[O-])cc1", "activity, negative = inhibition": "inactive: -12.6%"}
{"compound": "CC1CCN(c2nc(-c3ccco3)c3c(c2C#N)CC(C)(C)OC3)CC1", "activity, negative = inhibition": "inactive: -83.1%"}
{"compound": "NC(=O)c1ccc2nc(-c3ccc(Oc4ccc(Cl)cc4)cc3)[nH]c2c1", "Potency": "inconclusive [inhibitor, single point]"}
{"compound": "CSc1nc2ccccc2cc1/C=C(\\C#N)c1cccc(C)c1", "activity, negative = inhibition": "inactive: -1.1%"}
{"compound": "Cc1ccc(S(=O)(=O)NCCC2=CCCCC2)cc1C(N)=O", "Potency": "active: 7.94 µM"}
{"compound": "CC1C/C(=C/c2cccn2C)C(=O)/C(=C/c2cccn2C)C1", "note": "(stereo unspecified)", "Potency": "inconclusive [inhibitor, single point]"}
{"compound": "Cc1ccc(/C=C/c2ccc(=O)n(Cc3ccc(F)cc3)n2)cc1", "activity, negative = inhibition": "inactive: -2.88%"}
{"compound": "CC(=O)c1c(C)oc2ccc(N(C(C)=O)S(=O)(=O)c3ccc(F)cc3C)cc12", "Potency": "inconclusive [inhibitor, partial curve]"}
